# This is one part of the list.
# B1: Epa23 (Candida glabrata) (protein)
# chain: MGSSHHHHHHSSGLVPRGSHMIPNPFEGTINNFPSGCSPNHGLYNRGLTMELYNYSYIHPQSIQSYFNTSTLKKMEKGQCWDPSYLDVNYPRTGYKTHNRFAKVNGIDGILDFEFNPTRSCVPSKGQLPQNYNYPLQFTLSNFTMLLYGYFKPKVTAKHTFTIFADDLLFLNFGAGNAFDCCQQQDTIDDFGNYQAYALWGSDTQQNTLTVNLDANIYYPIRMFYNNRDFKGALNMYFTTDESNTKINDFSGYLFNIPDSSEGCPAHISYETECGNVSG
# Key:
# Test in all cases: glycan array binding signal (z-score within array); higher = stronger binding
# Conditions in all cases: glycan notation: IUPAC condensed, linker removed
# Gal6S(b1-4)Glc = biological target: Gal6S(b1-4)Glc
# Outline: (§1)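 Negative Z-scores can be read as non-binding. The Z-score is calculated within each array and then averaged across arrays of one protein sequence at different concentrations or buffers and across linkers. Arrays, 3228 in all, were curated from the Consortium for Functional Glycomics database and kept only where the protein sequence was available.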
# Gal6S(b1-4)Glc6S = biological target: Gal6S(b1-4)Glc6S
# Outline: as §1
# Gal6S(b1-4)GlcNAc = biological target: Gal6S(b1-4)GlcNAc
# Outline: as §1
# Gal6S(b1-4)GlcNAc6S = biological target: Gal6S(b1-4)GlcNAc6S
# Outline: as §1
# GalNAc(a1-3)Gal = biological target: GalNAc(a1-3)Gal
# Outline: as §1
# GalNAc(a1-3)GalNAc = biological target: GalNAc(a1-3)GalNAc
# Outline: as §1
# [1] = biological target: GalNAc(a1-3)GalNAc(b1-3)Gal(a1-4)Gal(b1-4)Glc
# Outline: as §1
# [2] = biological target: GalNAc(a1-3)GalNAc(b1-3)Gal(a1-4)Gal(b1-4)GlcNAc
# Outline: as §1
# GalNAc(b1-3)Gal = biological target: GalNAc(b1-3)Gal
# Outline: as §1
# [3] = biological target: GalNAc(b1-3)Gal(a1-4)Gal(b1-4)GlcNAc
# Outline: as §1
# [4] = biological target: GalNAc(b1-3)Gal(a1-4)Gal(b1-4)GlcNAc(b1-3)Gal(b1-4)Glc
# Outline: as §1
# [5] = biological target: GalNAc(b1-3)Gal(a1-6)Gal(b1-4)Glc
# Outline: as §1
# GalNAc(b1-3)GalNAc = biological target: GalNAc(b1-3)GalNAc
# Outline: as §1
# GalNAc(b1-3)GlcNAc = biological target: GalNAc(b1-3)GlcNAc
# Outline: as §1
# GalNAc(b1-4)Gal(b1-4)Glc = biological target: GalNAc(b1-4)Gal(b1-4)Glc
# Outline: as §1
# GalNAc(b1-4)GlcNAc = biological target: GalNAc(b1-4)GlcNAc
# Outline: as §1
# [6] = biological target: GalNAc(b1-4)GlcNAc(b1-2)Man
# Outline: as §1
# [7] = biological target: GalNAc(b1-4)GlcNAc(b1-2)Man(a1-3)[GalNAc(b1-4)GlcNAc(b1-2)Man(a1-6)]Man(b1-4)GlcNAc(b1-4)GlcNAc
# Outline: as §1
# [8] = biological target: GalNAc(b1-4)GlcNAc(b1-3)GalNAc(b1-4)GlcNAc
# Outline: as §1
# GalNAc(b1-4)GlcNAc6S = biological target: GalNAc(b1-4)GlcNAc6S
# Outline: as §1
# GalNAc(b1-6)GalNAc = biological target: GalNAc(b1-6)GalNAc
# Outline: as §1
# GalNAc3S(b1-4)GlcNAc = biological target: GalNAc3S(b1-4)GlcNAc
# Outline: as §1
# GalNAc3S(b1-4)GlcNAc3S = biological target: GalNAc3S(b1-4)GlcNAc3S
# Outline: as §1
# [9] = biological target: GalNAc3S(b1-4)[Fuc(a1-3)]GlcNAc
# Outline: as §1
# GalNAc4S6S(b1-4)GlcNAc = biological target: GalNAc4S6S(b1-4)GlcNAc
# Outline: as §1
# GalNAc6S(b1-4)GlcNAc = biological target: GalNAc6S(b1-4)GlcNAc
# Outline: as §1
# Glc(a1-4)Glc = biological target: Glc(a1-4)Glc
# Outline: as §1
# [10] = biological target: Glc(a1-4)Glc(a1-4)Glc(a1-4)Glc
# Outline: as §1
# Glc(a1-6)Glc(a1-6)Glc = biological target: Glc(a1-6)Glc(a1-6)Glc
# Outline: as §1
# [11] = biological target: Glc(a1-6)Glc(a1-6)Glc(a1-6)Glc
# Outline: as §1
# Glc(b1-4)Glc = biological target: Glc(b1-4)Glc
# Outline: as §1
# Glc(b1-6)Glc = biological target: Glc(b1-6)Glc
# Outline: as §1
# GlcA(b1-3)Gal = biological target: GlcA(b1-3)Gal
# Outline: as §1
# GlcA(b1-3)GlcNAc = biological target: GlcA(b1-3)GlcNAc
# Outline: as §1
# GlcA(b1-6)Gal = biological target: GlcA(b1-6)Gal
# Outline: as §1
# [12] = biological target: GlcA3S(b1-3)Gal(b1-4)GlcNAc(b1-2)Man
# Outline: as §1
# [13] = biological target: GlcA3S(b1-3)Gal(b1-4)GlcNAc(b1-3)Gal(b1-4)Glc
# Outline: as §1
binder,measurement,setting,value
B1,glycan array binding signal (z-score),Gal6S(b1-4)Glc,6.7
same,glycan array binding signal (z-score),Gal6S(b1-4)Glc6S,11.8
same,glycan array binding signal (z-score),Gal6S(b1-4)GlcNAc,5.69
same,glycan array binding signal (z-score),Gal6S(b1-4)GlcNAc6S,13.5
same,glycan array binding signal (z-score),GalNAc(a1-3)Gal,-0.276
same,glycan array binding signal (z-score),GalNAc(a1-3)GalNAc,-0.278
same,glycan array binding signal (z-score),[1],-0.137
same,glycan array binding signal (z-score),[2],-0.219
same,glycan array binding signal (z-score),GalNAc(b1-3)Gal,-0.168
same,glycan array binding signal (z-score),[3],-0.231
same,glycan array binding signal (z-score),[4],-0.248
same,glycan array binding signal (z-score),[5],-0.237
same,glycan array binding signal (z-score),GalNAc(b1-3)GalNAc,-0.247
same,glycan array binding signal (z-score),GalNAc(b1-3)GlcNAc,-0.294
same,glycan array binding signal (z-score),GalNAc(b1-4)Gal(b1-4)Glc,-0.186
same,glycan array binding signal (z-score),GalNAc(b1-4)GlcNAc,-0.168
same,glycan array binding signal (z-score),[6],-0.241
same,glycan array binding signal (z-score),[7],-0.266
same,glycan array binding signal (z-score),[8],-0.241
same,glycan array binding signal (z-score),GalNAc(b1-4)GlcNAc6S,-0.236
same,glycan array binding signal (z-score),GalNAc(b1-6)GalNAc,-0.203
same,glycan array binding signal (z-score),GalNAc3S(b1-4)GlcNAc,-0.23
same,glycan array binding signal (z-score),GalNAc3S(b1-4)GlcNAc3S,-0.202
same,glycan array binding signal (z-score),[9],-0.264
same,glycan array binding signal (z-score),GalNAc4S6S(b1-4)GlcNAc,-0.142
same,glycan array binding signal (z-score),GalNAc6S(b1-4)GlcNAc,-0.222
same,glycan array binding signal (z-score),Glc(a1-4)Glc,-0.258
same,glycan array binding signal (z-score),[10],-0.233
same,glycan array binding signal (z-score),Glc(a1-6)Glc(a1-6)Glc,-0.218
same,glycan array binding signal (z-score),[11],-0.278
same,glycan array binding signal (z-score),Glc(b1-4)Glc,-0.305
same,glycan array binding signal (z-score),Glc(b1-6)Glc,-0.206
same,glycan array binding signal (z-score),GlcA(b1-3)Gal,-0.208
same,glycan array binding signal (z-score),GlcA(b1-3)GlcNAc,-0.249
same,glycan array binding signal (z-score),GlcA(b1-6)Gal,-0.128
same,glycan array binding signal (z-score),[12],-0.204
same,glycan array binding signal (z-score),[13],-0.21

# Reference: the supplement of paper PMC8728848
